# Measured values from PubChem BioAssay AID686979 (National Center for Advancing Translational Sciences (NCATS), 2013).
# Values joined by “and” are separate entries in the source; they are usually repeats but may differ in a detail not shown here. Equal entries are not always repeated. Hit rate of the full screen: of about 420,000 compounds, about 50,000 (12%) were called active. This list was built around the results that the source calls inconclusive (neither active nor inactive); the mix of calls is not that of the screen. The call rests on the fitted dose curve; in most records, active means well fitted inhibition curve with a large enough effect; inconclusive means small, poorly fitted or top-dose-only effect; inactive means flat fitted curve, though single readings scatter. Potencies of inconclusive entries are doubtful fits and often do not repeat.
# Experiment: qHTS for Inhibitors of human tyrosyl-DNA phosphodiesterase 1 (TDP1): qHTS in cells in presence of CPT; further: nearly all actives have a fitted effect of over 55% in size
# Conditions: chicken DT40 Tdp1-/-;hTDP1 cells + 20 nM CPT, ATP luminescence, 48 h; activity change, negative = growth inhibition: at 46.2 µM (top of the series) unless noted
# In short: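 Cell growth measured by CellTiter-Glo luminescence after a minimum 48 h, 37 C compound exposure with 20 nM CPT in Tdp1-knockout DT40 cells stably expressing hTDP1, seeded 400/well; qHTS titration format.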
# On the % scale 0 is the no-effect control and ±100 the full control effect; potency means the concentration at half of the fitted maximal effect; tags describe the fitted curve by direction and shape.
SMILES,Potency,"activity change, negative = growth inhibition"
Cc1nn2c(COc3ccc(NC(=O)c4ccccc4Cl)cc3)nnc2c2ccccc12,active: 18.4 µM,–
Cc1cc(Br)cn2c(Cc3ccsc3)c(-c3ccc(C#N)cc3)nc12,"inconclusive: 29.1 µM [inhibitor, single point]",–
CCN(CC)S(=O)(=O)c1cccc(C(=O)Nc2cc(C)cc(C)c2)c1,"inconclusive: 23.1 µM [inhibitor, partial curve]",–
Cn1ccc2c(N3CCCC3)cc3c(c21)C1CCC3O1 (stereo not given),"inconclusive: 20.6 µM [inhibitor, single point]",–
CNCc1ccccc1Sc1ccc(OC)cc1,"inconclusive: 20.6 µM [inhibitor, single point]",–
COc1cc(NC(=O)c2cc(OC)c(OC)c(OC)c2)c(OC)cc1NC(=O)CN1CCCCC1,"inconclusive: 29.1 µM [inhibitor, single point]",–
COc1ccc(-n2c(C)nc3c(cnn3-c3ccc(C)c(C)c3)c2=O)cc1,active: 23.1 µM,–
CC(C)(C)NC(=O)N1CCN(c2nc3ccc(Cl)cc3s2)CC1,active: 23.1 µM,–
O=C(Nc1ccc(-c2cc3ccccc3oc2=O)c(Cl)c1)c1cccnc1,"inconclusive: 8.2 µM [inhibitor, single point]",–
CNC(=O)c1ccsc1NC(=O)CCS(=O)(=O)c1ccc(F)cc1,"inconclusive: 29.1 µM [inhibitor, single point]",–
CC(C)OCC(O)CN1CCN(CCN2C(=O)c3cccc4cccc(c34)C2=O)CC1 (stereo not given),inactive,–
CC(C)c1ccc(S(=O)(=O)c2cnc(SCC(=O)Nc3cccc(C(F)(F)F)c3)nc2N)cc1,"inconclusive: 18.4 µM [inhibitor, partial curve]",–
CCc1cccc(CC)c1NS(=O)(=O)c1ccc2c(c1)CCN2C(=O)C1CC1,"inconclusive: 8.2 µM [inhibitor, partial curve, poor fit]",–
CCN(CC)CCNC(=O)c1c(O)c2cccc3c2n(c1=O)CCC3,"inconclusive: 29.1 µM [inhibitor, single point]",–
Cc1cccc(NNC(N)=S)c1C,"inconclusive: 25.9 µM [inhibitor, single point]",–
c1nc(NC2CCNCC2)c2cc(-c3ccc4c(c3)OCO4)ccc2n1,"inconclusive: 20.6 µM [inhibitor, single point]",–
CC(C)CCNC(=O)COC(=O)c1cc(Br)c(Br)s1,inactive,–
O=C(Nc1ccc(Cl)c(C(F)(F)F)c1)[C@@H]1CC=C[C@@H]2CCN(Cc3ccc(Cl)c(Cl)c3)C(=O)[C@@H]21,"inconclusive: 35.5 µM [inhibitor, single point] and inconclusive: 29.1 µM [inhibitor, single point]",–
CC(C)(C)NC(=O)CN(C(=O)CS(=O)CC(=O)Nc1ccc(F)cc1)c1ccc(F)c(Cl)c1 (stereo not given),inactive,–
Cc1cc(C)c(C#N)c(Cl)n1,inactive,–
Cc1ccc2nc(SCC(=O)N3CCCc4ccccc43)nc(=O)n2c1,inactive,–
O=C(C1CCC(CNc2c(N3CCCCC3)c(=O)c2=O)CC1)N1CCN(c2ccccn2)CC1 (stereo not given),"inconclusive: 23.1 µM [inhibitor, single point]",–
O=C(Nc1cccc2ccccc12)c1cn(-c2ccccc2)nc1-c1cccs1,"inconclusive: 23.1 µM [inhibitor, single point]",–
Cc1ccccc1OCc1nnc(SCC(=O)N2c3ccccc3Sc3ccc(Cl)cc32)o1,"inconclusive: 29.1 µM [inhibitor, single point]",–
O=C(NC1CCCC1)C(C1CC1)n1c(-c2ccnc3ccccc23)nc2ccccc21 (stereo not given),"inconclusive: 29.1 µM [inhibitor, single point]",–

SMILES,Potency,"activity change, negative = growth inhibition"
C=C(C)COc1ccc2c3c(c(=O)oc2c1OCC(=C)C)CCC3,"inconclusive: 18.4 µM [inhibitor, partial curve, poor fit]",–
CC(C)NC(=O)c1cn([C@H]2CC[C@@H](NC(=O)/C=C/c3cccs3)CC2)nn1,"inconclusive: 5.8 µM [inhibitor, single point]",–
Cc1ccc(-c2cn3cccnc3n2)cc1NC(=O)c1cccs1,inactive,–
Cc1cccc(N2CCN(C(C(=O)NCc3ccccc3)c3ccco3)CC2)c1C (stereo not given),"inconclusive: 23.1 µM [inhibitor, single point]",–
COc1ccccc1CN(Cc1nc2ccccc2c(=O)[nH]1)S(=O)(=O)c1ccc(C)cc1,"inconclusive: 29.1 µM [inhibitor, single point]",–
Cc1ccc(CNC(=O)c2nnc(Cc3cccc(F)c3)o2)cc1,inactive,–
CCOC(=O)Nc1nc2ccc(Cn3cccc3)cc2[nH]1,active: 0.82 µM,–
CS(=O)(=O)c1ccc(C(=O)NNC(=O)c2cc(-c3ccccc3)n[nH]2)cc1,inactive,–
COc1ccc(-c2cc(-c3ccc(OC)cc3)nc(-c3ccc4c(c3)NC(=O)CO4)c2)cc1,"inconclusive: 29.1 µM [inhibitor, single point]",–
Cc1noc(C)c1NC(=O)Nc1cccc2c1O[C@H](CN(C)S(=O)(=O)c1ccc(F)cc1)[C@@H](C)CN([C@H](C)CO)C2=O,–,inconclusive: -30.2% [inhibitor]
CCOC(=O)c1cc(-c2ccc(OC)c(S(=O)(=O)Nc3ccc(OC)cc3OC)c2)on1,inactive,–
COc1ccc(-c2ccc(CCC(=O)O)n2-c2cc(OC)ccc2OC)cc1,"inconclusive: 29.1 µM [inhibitor, single point]",–
Cc1ccc(N2CC(C(=O)N/N=C/c3sccc3C)CC2=O)cc1 (stereo not given),inactive,–
CCOc1ccc(Nc2nc(NCC3CCCO3)c3ccccc3n2)cc1 (stereo not given),active: 25.9 µM,–
COc1ccc(/C=C/C(=O)c2ccc(C)c([N+](=O)[O-])c2)cc1O,"inconclusive: 20.6 µM [inhibitor, single point]",–
O=C1CC(c2ccc(Cl)cc2)Oc2ccc(Cl)cc21 (stereo not given),"inconclusive: 18.4 µM [inhibitor, single point]",–
N#CCCn1c(=O)c(-c2cccs2)nc2cnc(Oc3cccc(Cl)c3)nc21,inactive,–
Cc1ccc(NC(=S)N/N=C2\CC3CC=CC23)c(C)c1 (stereo not given),inactive,–
CCOc1cc(/C=N/NC(=O)C(O)(c2ccccc2)c2ccccc2)ccc1OC(=O)c1ccco1,"inconclusive: 29.1 µM [inhibitor, single point]",–
CCOCCCn1cnc2c3cc(F)ccc3n(C)c2c1=O,inactive,–
COC(=O)c1sccc1S(=O)(=O)N1CCN(c2ccccc2OC)CC1,inactive,–
O=C(Nc1ccc2nc(SCCOc3ccccc3Cl)sc2c1)c1cccs1,"inconclusive: 23.1 µM [inhibitor, single point]",–
CCn1c2ccccc2c2cc(/C=C(/C#N)C(N)=S)ccc21,"inconclusive: 23.1 µM [inhibitor, single point]",–
CCN(C(=O)COC(=O)c1c(C)nsc1NC)c1ccccc1,inactive,–
CCC1=Nc2cc(C(=O)NCc3ccco3)ccc2Sc2ccccc21,active: 3.26 µM,–

SMILES,Potency,"activity change, negative = growth inhibition"
N=C1S/C(=C\c2ccccc2F)C(=O)N1c1ccc(F)cc1,"inconclusive: 16.4 µM [inhibitor, partial curve]",–
COc1ccc(C)cc1NC(=O)CCCNC(=O)Cn1cnc2sc(C)c(C)c2c1=O,inactive,–
COc1ccc(N2CC(C(=O)Nc3ccc(NC(C)=O)cc3)CC2=O)cc1 (stereo not given),inactive,–
Cc1c(/C(Cc2ccccc2)=N/O)c2ccccc2n1C,inactive,–
Cc1cc(Cn2nnc3ccccc32)c(O)c(C(C)(C)C)c1,active: 16.4 µM,–
CCOc1cc(N2CCOCC2)c(OCC)cc1NC(=O)c1cc(-c2ccco2)nc2ccccc12,"inconclusive: 20.6 µM [inhibitor, single point]",–
CCOc1cc(N2CCOCC2)c(OCC)cc1NC(=O)CCC1CCCC1,active: 16.4 µM,–
CC(OC(=O)C1CCCCC1)C(=O)Nc1ccc(S(N)(=O)=O)cc1 (stereo not given),inactive,–
O=C(CSc1ccccc1)N/N=C/c1ccccc1O,active: 4.11 µM,–
COc1ccc(NC(=O)/C(C#N)=C\C=C\c2ccco2)cc1,active: 8.2 µM,–
CS(=O)(=O)N(CCc1ccccc1)CC(=O)NCc1ccccc1Cl,inactive,–
O=C1c2ccccc2C(=O)c2c1ccc1c(=O)n(C3CCCCC3)[nH]c21,"inconclusive: 20.6 µM [inhibitor, partial curve]",–
CCN1C(=O)c2ccccc2S(=O)c2ccc(C(=O)NCc3ccc(F)cc3)cc21 (stereo not given),"inconclusive: 29.1 µM [inhibitor, single point]",–
O=Cc1ccc(O)c(O)c1,inactive,–
Cc1cc(=O)[nH]c(SCC(=O)Nc2ccc(C)c(S(=O)(=O)N3CCCCC3)c2)n1,inactive,–
CC1CCCN(C(=O)CN2C(=O)c3ccccc3S2(=O)=O)C1 (stereo not given),inactive,–
COCCCNC(=O)C(=O)NCC(c1ccc2c(c1)OCO2)N1CCOCC1 (stereo not given),inactive,–
CCCCC1CCC(C(=O)Nc2ccccc2N2CCOCC2)CC1 (stereo not given),"inconclusive: 29.1 µM [inhibitor, single point]",–
Cc1cc(C(=O)OCC(=O)NCc2cccs2)ccc1[N+](=O)[O-],inactive,–
Cc1cc(CNC(=O)c2cc(COc3ccc(F)c(F)c3)on2)nn1C,active: 14.6 µM,–
COCCNC(=O)NC12CC3(C)CC(C)(CC(C)(C3)C1)C2,"inconclusive: 23.1 µM [inhibitor, single point]",–
CCCOc1ccc(-c2nnn(CC(=O)Nc3cccc(C(=O)OC)c3)n2)cc1,"inconclusive: 18.4 µM [inhibitor, single point]",–
COc1ccc(NC(=O)C2=C(C)Nc3nc(CCCO)nn3C2c2ccc(O)cc2)cc1 (stereo not given),inactive,–
CCS(=O)(=O)N1CCN(c2nc(-c3ccccc3)cs2)CC1,inactive,–
CC(C)(C)n1nnnc1C(c1cc2cc3c(cc2[nH]c1=O)OCCO3)N1CCSCC1 (stereo not given),inactive,–
